Data: article PMC4336329 (PLoS ONE, 2015)
The whole screen tested about 310,000 compounds, of which about 2,200 (0.71%) showed an effect of 50% or more. Effects have a minus sign here. The list shows a part of the results.

target: human ether-à-go-go-related gene (hERG) potassium channel (human, UniProt Q12809); test: primary screen, population patch clamp on CHO cells stably expressing hERG
Sequence (Q12809 whole entry, looked up): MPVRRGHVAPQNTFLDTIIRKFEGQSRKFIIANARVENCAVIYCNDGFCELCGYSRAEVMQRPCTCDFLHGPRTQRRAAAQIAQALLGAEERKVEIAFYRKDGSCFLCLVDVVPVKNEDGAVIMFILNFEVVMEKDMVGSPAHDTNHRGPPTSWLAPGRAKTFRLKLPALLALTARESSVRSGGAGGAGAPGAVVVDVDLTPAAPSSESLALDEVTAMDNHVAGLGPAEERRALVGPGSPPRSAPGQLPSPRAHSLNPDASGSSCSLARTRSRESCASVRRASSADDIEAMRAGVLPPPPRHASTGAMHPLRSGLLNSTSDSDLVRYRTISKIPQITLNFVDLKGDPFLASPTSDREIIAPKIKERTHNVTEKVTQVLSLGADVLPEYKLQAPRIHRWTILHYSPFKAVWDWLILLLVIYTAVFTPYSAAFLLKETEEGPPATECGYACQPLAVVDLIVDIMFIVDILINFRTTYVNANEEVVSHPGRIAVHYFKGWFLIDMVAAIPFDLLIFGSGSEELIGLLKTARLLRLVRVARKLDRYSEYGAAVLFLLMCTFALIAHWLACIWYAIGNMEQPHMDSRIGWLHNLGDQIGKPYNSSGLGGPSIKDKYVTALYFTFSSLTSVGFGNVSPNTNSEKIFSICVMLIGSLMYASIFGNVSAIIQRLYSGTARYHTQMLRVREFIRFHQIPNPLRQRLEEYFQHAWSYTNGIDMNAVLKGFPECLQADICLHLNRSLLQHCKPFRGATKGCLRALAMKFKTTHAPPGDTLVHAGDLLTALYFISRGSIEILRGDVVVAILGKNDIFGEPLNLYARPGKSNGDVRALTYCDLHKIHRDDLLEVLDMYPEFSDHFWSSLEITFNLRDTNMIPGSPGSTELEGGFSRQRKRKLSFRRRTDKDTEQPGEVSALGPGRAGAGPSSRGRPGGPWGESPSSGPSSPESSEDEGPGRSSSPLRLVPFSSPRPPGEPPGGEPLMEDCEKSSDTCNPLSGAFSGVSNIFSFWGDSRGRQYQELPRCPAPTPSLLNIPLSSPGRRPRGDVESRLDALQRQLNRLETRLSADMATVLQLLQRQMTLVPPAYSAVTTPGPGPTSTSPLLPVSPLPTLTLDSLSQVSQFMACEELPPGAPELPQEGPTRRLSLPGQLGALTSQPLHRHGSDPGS

Row | SMILES | hERG current change (%, negative = inhibition) at 1uM
1 | CCSCCOC(=O)C1=C(C)NC(=O)NC1c1cccc(OC)c1OC (centres unmarked) | 10.7%
2 | COc1cccc(/C=C/c2nc(S(=O)(=O)c3ccccc3)c(N(C)C)o2)c1 | 12.5%
3 | N#CC(C#N)=C1NC(N)=C(C#N)C(c2ccccc2)=C1C#N | -2.99%
4 | O=C(NCCCCCc1nc2ccccc2[nH]1)c1ccccc1Cl | 13.8%
5 | COc1ccc(-c2[nH]c(-c3ccc(SC)cc3)nc2SCC(=O)Nc2nccs2)cc1 | 9.04%
6 | Cc1nc(NC(=O)COC(=O)c2ccc(S(=O)(=O)N3CCc4ccccc4C3)cc2)c(Cl)cc1Cl | 6.95%
7 | CCOc1ncccc1C(=O)OCc1c(Cl)cccc1Cl | 10.9%
8 | O=C(COC(=O)c1ccc(O)cc1)NCC1COc2ccccc2O1 (centres unmarked) | -2.74%
9 | Cc1cccc(C(=O)NC(=S)NC(C)c2ccccc2)c1 (centres unmarked) | 11.9%
10 | CCCn1c(=O)c2sccc2n2c(CCCC(=O)NC3CCN(Cc4ccccc4)CC3)nnc12 | 0.0751%
11 | O=C(Nc1cccc(O)c1)c1cc(-c2cccs2)on1 | 7%
12 | CC(C)(C)c1ccc(S(=O)(=O)NCc2ccccn2)cc1 | 8.87%
13 | O=C(Oc1oc(-c2ccco2)nc1C=Nc1ccccc1)c1ccco1 | 14.4%
14 | O=C(CN1CCOCC1)Nc1nc2ccc([N+](=O)[O-])cc2s1 | -9.36%
15 | O=C(CN1CCOCC1)Nc1ccccc1Sc1ccccc1 | 3.64%
16 | CCC(=O)Oc1ccc(C(=O)Nc2ccc3c(c2)C(=O)N(C2CCCCC2)C3=O)cc1 | 19.8%
17 | Cc1ccc(S(=O)(=O)NCc2ccncc2)cc1C(=O)NCC(C)C | 10.7%
18 | CCCOc1ccc(C(O)(CCC)CCN2CCCCC2)cc1 (centres unmarked) | -25.4%
19 | Cc1cc(N(C)/N=C/c2ccccc2)nc(-c2ccccc2O)n1 | -1.01%

Row | SMILES | hERG current change (%, negative = inhibition) at 1uM
20 | Cc1nc(SCCc2ccccc2)[nH]c(=O)c1C | 13.9%
21 | O=C(CCc1nc2ccccc2s1)OCc1ccccc1F | 10.5%
22 | Cn1c(=O)n(C)c2cc(/C=N/NC(=O)c3ccc(Cl)cc3)ccc21 | 18.4%
23 | O=c1cc2c(n[nH]1)-c1ccccc1CC2 | 10.1%
24 | CCOC(=O)N1CCN(C(=O)c2cc3c(=O)n4cccc(C)c4nc3s2)CC1 | 1.13%
25 | CCO[C@H]1OC(C(=O)N2CCN(Cc3ccccc3)CC2)=C[C@@H](C2CCCCC2)[C@@H]1CCCO | 14.6%
26 | CC1CCCN(C(=O)Cn2nnc(-c3cccnc3)n2)C1 (centres unmarked) | 0.118%
27 | CCCN(Cc1nnc(-c2cccs2)o1)C(=O)CN1C(=O)NC2(CCC(C)CC2)C1=O (centres unmarked) | -20.9%
28 | CCOCCCNC(=O)C(NC(=O)c1ccc(NC(C)=O)cc1)c1ccccc1 (centres unmarked) | 4.68%
29 | CC(=O)c1cccc(S(=O)(=O)NCCC(=O)O)c1 | 28%
30 | COc1ccc(NS(=O)(=O)c2ccc3oc(SCC(N)=O)nc3c2)cc1 | 12.8%
31 | CCOC(=O)C1(C)Oc2cccnc2NC1=O (centres unmarked) | 18.9%
32 | CCOC(=O)N1CCN(c2cc(C)c(C(C)=O)cc2F)CC1 | 13.1%
33 | COc1ccc([C@H]2CC(=O)C=C(c3cccc(CO)c3)C2)cc1 | -4.79%
34 | Nc1c(Cl)cc(C(=O)c2c3ccc(C(F)(F)F)cc3[n+]([O-])n2CCC[NH3+])cc1Cl.[Cl-] | -37.3%
35 | CCC(=O)N1CCN=C1SCc1ccc(Cl)cc1 | -4.17%
36 | COc1cccc(CCNC(=O)CC2C(=O)NCCN2Cc2ccc(C)o2)c1 (centres unmarked) | 15.7%
37 | NC(=O)CNC(=O)[C@@H]1CC2(CC(c3ccccc3)=NO2)CN1C(=O)c1ccc(Br)cc1 (some centres unmarked) | 7.97%
38 | CN(CCC#N)C(=O)COC(=O)C1c2ccccc2Oc2ccccc21 | 3.21%

Row | SMILES | hERG current change (%, negative = inhibition) at 1uM
39 | COc1ccc(-n2ncc3c2CC(C)(C)CC3NC(=O)CCn2cncn2)cc1 (centres unmarked) | -5.06%
40 | CCN1CC(CNC(=O)c2ccc3nc(Cc4cccc(Cl)c4)oc3c2)CC1=O (centres unmarked) | 8.38%
41 | O=C(NCC(=O)N(c1ccccc1F)C(C(=O)NCC1CCCO1)c1ccccc1)c1ccco1 (centres unmarked) | 5.88%
42 | CCOc1ccc(S(=O)(=O)N2CCCC(C(=O)N3CCN(c4ccccc4)CC3)C2)cc1 (centres unmarked) | -22.3%
43 | CC1CCC2C(=O)N(c3ccc(NC4CCN(Cc5ccccc5)CC4)c([N+](=O)[O-])c3)C(=O)C2C1 (centres unmarked) | 8.68%
44 | Clc1ccc(Cl)c(-c2nn3c(COc4ccccc4)nnc3s2)c1 | -2.31%
45 | COC(=O)C1=C(C)N(Cc2ccco2)C(=O)N[C@H]1c1ccc(Br)cc1 | 15%
46 | O=C(NCCOCCNC(=O)OCc1ccccc1)OCc1ccccc1 | 4.83%
47 | CC(=O)c1cccc(NC(=O)N2CCC(c3nnc(SCC(N)=O)n3C)CC2)c1 | 12.4%
48 | Cc1onc(-c2ccccc2)c1CNS(=O)(=O)c1ccc(F)cc1F | 5.25%
49 | Brc1ccc(-c2cn3c(n2)CCc2ccc4cccnc4c2-3)cc1 | 10.5%
50 | O=C(NCCNCc1cccs1)c1ccccc1F | 4.36%
51 | CCOC(=O)c1ccc(-n2c(C)nc3c(cnn3-c3ccc(Cl)cc3)c2=O)cc1 | -9.73%
52 | COCCNC(=O)NC12CC3(C)CC(C)(CC(C)(C3)C1)C2 | 12.3%
53 | CCCOc1ccc(C(=O)c2ccccc2C(=O)O)cc1OCCC | 9.12%
54 | OCCC1CN(Cc2ccc(-c3ccco3)cc2)CCN1Cc1ccsc1 (centres unmarked) | 2.41%
55 | CCOC(=O)C1=C(COC(=O)c2cccc(Br)c2)NC(=O)NC1C (centres unmarked) | 12.4%
56 | COc1ccc(NC(=O)COc2ccc(S(=O)(=O)N3CCOCC3)cc2C)cc1OC | 14.8%
